Results published in the supplement of paper PMC11417369.
This is one part of the list.

Each sequence was assayed on PfAP2-HC AP2 domain (GST-tagged) (assay: gcPBM binding intensity (ln(normalized median fluorescence intensity)); higher = stronger DNA binding).
Summary of the method: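 Using an Agilent 4 × 180k array, primer-extended double-stranded 36-bp intergenic genomic probes and negative controls were exposed for 1 h to GST-fused P. falciparum DNA-binding domains expressed in E. coli. Binding was carried out in 1× PBS with 1% milk, 0.2 mg/ml BSA, 0.5% salmon testes DNA and 0.03% Triton X-100, and protein was detected with Alexa488 anti-GST antibody and a 488 nm scan. Binding intensity is the highest Masliner-normalised natural-log median intensity across replicate spots of either probe orientation.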

| Sequence | gcPBM binding intensity (ln) |
| --- | --- |
| ACATGTTTTATGTGCACACAAAGTTGTTATGAGGTT [CACACA_site4031] | 10 |
| ATATAATATTTCATGTGGACACATTTTATGATTGTA [XGTACX_site8770] | 9.67 |
| ACACATATATATTATTATTATATAATATATATATAT [CACACA_negctrl_site1545] | 9.66 |
| AATCAAAATTAATTAACACACAATTTTAATATTCTT [CACACA_site2063] | 9.55 |
| ATAGTAAACGAAATAAAAAGATTAGCATAATATCCT [CACACA_negctrl_site1730] | 9.79 |
| TCCTGTGATTATATAACACACATTATTGCTTATAAG [CACACA_site1518] | 9.78 |
| ATATATTATATATATTACAACTTAAGAATATACATA [TGCATGCA_negctrl_site371] | 9.57 |
| ATTGTTTATATTGATTGTACTCATTTTTTTTTTATT [XGTACX_site1946] | 9.8 |
| ATATATTGAAAAAAATGTACGTATTTTTTTATGTTA [XGTACX_site4654] | 9.57 |
| ATTATATATATATATACACACACACCCTAAAAATAT [CACACA_site8463] | 10.5 |
| AATAAATATATTACATATATGTGTAGTATTTTTTTA [TGCATGCA_negctrl_site268] | 9.61 |
| TAAGCTTGTAACAGTTTACACACTAATATTTATAAA [CACACA_site3907] | 9.6 |
| TTATTAAATTTTTTTTGTACTTATATATATATATAT [XGTACX_site2443] | 9.88 |
| TATGAATGTATATGTTGTACATATAAATATTTATAT [XGTACX_site1146] | 9.73 |
| ATTATTATATAGTGTGCATGCAATATTAATAAAACC [TGCATGCA_site245] | 10 |
| TATATTTACATTGTAACACACATGAAATATTTATAT [CACACA_site6178] | 9.83 |
| AGAATAAAAAGGAACACACACACACCCATATATATA [CACACA_site3590] | 10.7 |
| TATGTTATATTATAAGGATAAATTTTGATTATATAA [TGCATGCA_negctrl_site600] | 9.33 |
| ATGTACATTTTTTTCACACATACATTAATTTATGAG [CACACA_site5801] | 9.65 |
| TAGACTAATCCCAAAAGTACAGAAAAATTATATTAT [XGTACX_site8663] | 9.5 |
| TAATTTCTTATGTATTGTACATATAATATATGATAT [XGTACX_site4898] | 9.71 |
| AAAATAAATAGATAAGCACACAAGCATATAGACATA [CACACA_site7958] | 10.4 |

| Sequence | gcPBM binding intensity (ln) |
| --- | --- |
| AATATATTTATGCTCATGCACTTTTTTTTTTTTTTT [GTGCAC_site9654] | 9.75 |
| TATCAATATTAAAAAGTGCAAAATAAAATATAAAAT [GTGCAC_site9486] | 9.98 |
| TATATTATATATTGGGGTACATATATATAAATATAA [XGTACX_site2296] | 9.41 |
| TTATGTTGTAAATGCACACATACAAATACAGATACA [CACACA_site4876] | 9.81 |
| GAAAACAAATATGTAGCACACATTCACATAATATAT [CACACA_site8731] | 10.1 |
| ATTATAATGGTAAAGTGTACAAATTTTTATTACACC [XGTACX_site5274] | 9.7 |
| ATAAATATAAAAATTTGTACATATATAGGTATAGGT [XGTACX_site1735] | 9.91 |
| ACATACAAGAATTAAACACACACAAAATATAAATTC [CACACA_site8985] | 10.9 |
| TCTTGTATATACAGTAGTACTAAAAATTATTAAATA [XGTACX_site7896] | 9.35 |
| TGTTTTTTGTTCTTTACAAAAAAAAAAAAAAAAAAA [GTGCAC_negctrl_site61] | 8.81 |
| TTTATTTATTATTAAAGTACTAAATTACATTATTAT [XGTACX_site6624] | 9.71 |
| TATTTAATTACATGAACACACATTAGATATTTTTAA [CACACA_site7405] | 9.45 |
| CATTATTTACCGCCGTGTACGTAATGAGAAATTAAA [XGTACX_site4662] | 9.44 |
| TTATTTCAAATTAATTTACACACTTCATACTAAAAG [CACACA_site9039] | 9.6 |
| TAATAAAAAAAGTGCACACACATAATATTTATATAT [CACACA_site7548] | 9.99 |
| ATAACAATTATTTATCTACACACTTTTATGTTATTT [CACACA_site7886] | 9.99 |
| TAAATTTTTTTTTTGATGCACTTAGTTATTATATTT | 9.61 |
| AATGGCAAAATAGGCACACACACATATACAGATATA [CACACA_site4726] | 10.6 |
| ATATATATATATATATGTACATATAATTTTTTTTTT [XGTACX_site6948] | 9.64 |
| TTTATATTAATTTGTGTAAATGCATATGATGAGCAT [XGTACX_negctrl_site254] | 9.41 |
| AAAAATAAAACAATTACACACATAATTTTATTTTTA [CACACA_site928] | 9.69 |
| TCCAAAATATCCTTCACACACGAACAGTTTCATTTA [CACACA_site5511] | 9.87 |

| Sequence | gcPBM binding intensity (ln) |
| --- | --- |
| ATTAAGTCTTATATTACACACGACATTGTAATGTAA [CACACA_site528] | 9.61 |
| AATTTTTTATACACAAGTACAAACGCGTAGTCACTT [XGTACX_site2458] | 9.6 |
| ATTCCACTGTTTTAGTGTACTGGTCGTTTTTTTTTT [XGTACX_site1738] | 9.89 |
| AAATAAAGAATATAAATACACACTTAAATATATATT [CACACA_site4007] | 9.91 |
| TGGACCAAACGACAAAAAAAAAGCAGAAAACAAAAA [GTGCAC_negctrl_site693] | 9.76 |
| ATTTATATATTTATATGTACATATCTATACATATAT [XGTACX_site7580] | 10.1 |
| TTTTTAAAAAAAAAAAAATAAAAAAAAAAAAAATAT [XGTACX_negctrl_site7] | 9.38 |
| GAATTTTTGACGATATAGGAAATAATTATCCTGAAG [XGTACX_negctrl_site61] | 9.3 |
| CTGTTAATTATATATTGTACAAAAGATATGATTATA [XGTACX_site6927] | 9.39 |
| ACAAAAAAATAAAATATATATATATATATAATATAT [CACACA_negctrl_site805] | 9.68 |
| ATAATAAAATAAATCACACATAATATAATGTAATAT [CACACA_site6144] | 9.74 |
| ATAATAATAGTAATATGTACATATATATATATATAT [XGTACX_site7437] | 10.3 |
| ATAAAAAAAAGAAAAACACACACATATATATATATA [CACACA_site8243] | 10.4 |
| ATATATATATATATATGTACATATTTACATTTTGTA [XGTACX_site3529] | 10.1 |
| TATACACATTCGCGTTGTACAAAAAAAAAAAAAAAG [XGTACX_site2880] | 9.59 |
| AATAAAGGAGCCTATGAACACACACCGGTACATATA [CACACA_site9352] | 10.6 |
| AAGATGAACCTTTACACATGCAACAAAAAATATACA [TGCATGCA_site166] | 9.53 |
| ATCAACATTATGTTTAGTACTTAGTGAATTGTTAAT [XGTACX_site4913] | 9.65 |
| AATATTTCTATATGAACATGCAATGTATCTTTTTAT [TGCATGCA_site738] | 9.6 |
| TTTTTATGATTATACTTATATAATTTCATGATTGAA [CACACA_negctrl_site228] | 9.4 |
| AATACTTACCAAAATACACACACACCCAAAATATAT [CACACA_site8559] | 10.3 |
| TTCTAAATTAATAATACACACTTGCTAAAATCATTA [CACACA_site5733] | 9.58 |

| Sequence | gcPBM binding intensity (ln) |
| --- | --- |
| ATTCTCCATGTTTGATGTACTCATATGACGACGGAG [XGTACX_site4923] | 9.52 |
| ATATAAATAACGTGTACACACATATGTATTTATATA [CACACA_site6520] | 9.93 |
| TTCTTATATTGTACAGTACACACCTTTATAATGTTA [CACACA_site7953] | 10 |
| AATTATATTTGAAATACACACATAAAAACCATATAG [CACACA_site7598] | 9.92 |
| TCAAAAAAGACACACCGTACATACTATTTGGACAGG [XGTACX_site7699] | 9.85 |
| ATTTTTATTTTATATACACACAATAATACTAGAATA [CACACA_site7810] | 9.69 |
| ATATATATCTACATATGTACATATATACATTACACA [XGTACX_site7210] | 9.84 |
| AGATATATAAAATATACACACAGTAATATTTATATA [CACACA_site6767] | 9.86 |
| ATTTCATATGGTCAACGTACTCATGCATCCCTCCTT [XGTACX_site437] | 9.74 |
| CTAAGAAGTATTTACACACCAACAAGGCGAAAAAAA [CACACA_site2945] | 9.83 |
| ATATCTTATATCTTCACACATACACAATAAATACAT [CACACA_site5028] | 9.94 |
| AATGTATTCTCTCATGCACACTTTCTTTAAGGGACC [CACACA_site5245] | 9.66 |
| ATATTTATATTTATGTGTACATATGAAATAATTATT [XGTACX_site7765] | 9.6 |
| TAATATATTATGAGGGGTACATAATATGGTTTATTG [XGTACX_site8301] | 9.59 |
| TAATATATTAATTTTTGTACTTAATTATATGTTTTT [XGTACX_site5654] | 9.66 |
| GTTTTTAAATATGCCATACACACTACTATATAATAA [CACACA_site1927] | 9.67 |
| GAAGAAAAAGAAAAAAGTACATATATTATATTATAA [XGTACX_site7870] | 9.48 |
| TAAGATGATATAGACTGTACATATTGAACTTACAAG [XGTACX_site4290] | 9.48 |
| TATGAAATGCTCCAATCACACATGAATGTAATATAT [CACACA_site5458] | 9.57 |
| ATATGATTTATAAAGTGTACCTTATTATAAGAAACA [XGTACX_site7914] | 9.46 |
| TTTTTTTTTTTTAGAGTACACACTTTTTTACATTTA [CACACA_site3836] | 9.58 |
| GTTGAAAATACAGAACGTACACGTTTGCCATATTGT [XGTACX_site2254] | 9.69 |
